B1: chr20:7982266:7982367:-|CDS|ENSG00000125827|msi1|FALSE|bound_elsewhere (ssRNA)
RNA: GGGAGUUCUACAGUCCGACGAUCGAGAAGUGAGGCCAAUGAUCAGGGGCCCCCAGGAGAGGACGGUGUGACCCGGGAGGAAGUAGAGCCUGAGGAGGCUGAAGAAGGCAUCUCUGAGCAACCCUGCCCAGCUGACACAGAGGUCAACAGAGGAUUGAGCAUCA
B2: ENSG00000198589:be:win_4351|CDS|ENSG00000198589|bound_else_gene|NA|bound_elsewhere_windowed (ssRNA)
RNA: GGGAGUUCUACAGUCCGACGAUCGCAGUAAGGAAUUGCUUGGAGUGUCAACAGCAUUCACAACUGAAAACUAGGGGAGAUAAAGCCUUGAAACCAAUGCAUAGCCUUAUUCCUUUAGGGAAAUCUGCAGCGAAGAGCCCAGUGCAACAGAGGAUUGAGCAUCA
B3: chr7:47276374:47276475:-|3pUTR|ENSG00000136205|msi1|FALSE|unique (ssRNA)
RNA: GGGAGUUCUACAGUCCGACGAUCCUGGGGUUUGGGAAUGUGCUUUGUGAACUCUGCUUUAAAGUGAGGGGCCGAGGAAAACUUAGAAACAGGCAGAGUUGGAAGCAGCCAAAUCACAGUGGGUGUUGUGUGUGUGUGCGUGUGCAACAGAGGAUUGAGCAUCA
B4: chr17:7460970:7461071:-|3pUTR|ENSG00000174282|msi1|FALSE|unique (ssRNA)
RNA: GGGAGUUCUACAGUCCGACGAUCGGAUGGAGAAGGGAAUCUACUUUCUCCCUGUUUUUUUUUCCUGAUGGUUUCUCCCAGACUAGACCAAAUAGCCAGAAAAAUGAUAGGGGUCGGAUGGGUGGGUAAGCCCAGGAUUUGCACCAACAGAGGAUUGAGCAUCA
B5: chr2:190436306:190436418:+|CDS|ENSG00000151690|unk|total|mutant (ssRNA)
RNA: GGGAGUUCUACAGUCCGACGAUCCCUUUUGCCUGUGUAUUACAAACAGCUGGGAAUGUCUCCAAGCCAGAGUGGACUACCCGCCGGUAUUCGUUACUUCAUUGAAUUCUGCAGUGCCCCCUUUUGGGGUGCCGUUGCAGACCGCAACAGAGGAUUGAGCAUCA
B6: ENSG00000198589:be:win_1651|CDS|ENSG00000198589|bound_else_gene|NA|bound_elsewhere_windowed (ssRNA)
RNA: GGGAGUUCUACAGUCCGACGAUCUUUUCAAAAUAUCUGAGUAAUCUGCAGAAUGGGAUGCCCCUGCUCAAGCAAUUGUGUGAUCACGUUCUUCUUAAUCCUGCCAUAUGGAUUCAUACCCCAGCCAAGGUUCAACUGAUGCUCCAACAGAGGAUUGAGCAUCA
B7: chr15:100649042:100649144:+|3pUTR|ENSG00000183475|unk|FALSE|unique (ssRNA)
RNA: GGGAGUUCUACAGUCCGACGAUCUACCUCUGCUUUUCUUUUGCUGUGCUCUUGUUUUUAACUUAUUUUUUUUUUAACAACUGUAGUACACUACCCUGAGACACUGCAUCUCGAUUUCUAUCUCUAGUUAGAGUUGUACUUUUACAACAGAGGAUUGAGCAUCA
B8: chr10:30461265:30461366:+|3pUTR|ENSG00000107968|unk|total|mutant (ssRNA)
RNA: GGGAGUUCUACAGUCCGACGAUCUCUUUGAGCCUUUAUUGGUAAAUUCUGGUAUACAUUGAAUUCAUUAUAAUUUGGGUGACCCGAACAACUUGAAGAUUGCCGCAAUAAGCUGGACCCGUGUCCUAAAAAUGGCUAACUGAUCAACAGAGGAUUGAGCAUCA
B9: chr7:44064065:44064166:+|3pUTR|ENSG00000136279|msi1|total|mutant (ssRNA)
RNA: GGGAGUUCUACAGUCCGACGAUCGCACACCCUUCCCGCCUUUCCAGGACUCAACAAGCUUUAAGGUCAUUCAGAUGCUAAUUCCGACUGCCCUUGUGUCAGAAUACUAAGGUGGGAGGCGGAGCGGAGGUGCCAGUCACUCUGCAACAGAGGAUUGAGCAUCA
B10: chrX:107070192:107070425:-|CDS|ENSG00000089682|control|control|control (ssRNA)
RNA: GGGAGUUCUACAGUCCGACGAUCCGUUCUAGGAGCCAAAUGGCAGAAAAGGACUGGGAGGACCUCAACAUUUAGUAUUCUCUUAGUUUCCUUGCUUUCAGAAACAGUGUUCACAUCUUCAGCCAUGUAUGGCAUUCCCCAUCUCAACAGAGGAUUGAGCAUCA
B11: chr17:49053040:49053141:+|3pUTR|ENSG00000159217|unk|total|mutant (ssRNA)
RNA: GGGAGUUCUACAGUCCGACGAUCCUCAGCUCCUGUGAGGGGUCUGGUCCGGAGAGAGCCAUUUUUAAGGACAGGGAGUUUUACCGCCCUUUUCUACUUUCCUCCCCUCCUCCCAGUCCUUAUCAAUCUUUUUUCCUUUUUCCUCAACAGAGGAUUGAGCAUCA
B12: chr4:25747873:25747886:-|3pUTR|ENSG00000091490|msi1_unk|total|mutant (ssRNA)
RNA: GGGAGUUCUACAGUCCGACGAUCCCGCAGUUAUAAGGCACCUUGAAAUAAAUUGUUUGUGCCUGGAAAUGCAGGGAGGGCAACCGCUUUGUAAAUUGGUUUACAUUUUUCUCCUUGAAUUUUUCCCGGGUCCCCGUGCUUCCGCAACAGAGGAUUGAGCAUCA
B13: chr20:3963869:3963970:-|CDS|ENSG00000101236|unk|FALSE|bound_elsewhere (ssRNA)
RNA: GGGAGUUCUACAGUCCGACGAUCAAUCUGCCUCUCAACAUAUAUAUUGUGGUUUUUGGUACUGCUAUAUUUGUCUUCAUCCUUAGUUUACUCUUCUGUUGCUACUUGAUUAGGUAACCAAUUUUCAUUCUAUGUUACUUCAAACAACAGAGGAUUGAGCAUCA
B14: chr20:31664451:31666086:-|three_prime_utr|ENSG00000171552|control|control|control (ssRNA)
RNA: GGGAGUUCUACAGUCCGACGAUCAUGCAGCCCAUGCCCACCUGCCCAUCACAGGGUUGGGCCCAGAUCUGGUCCCUUGCAGCUAGUUUUCUAGAAUUUAUCACACUUCUGUGAGACCCCCACACCUCAGUUCCCUUGGCCUCACAACAGAGGAUUGAGCAUCA
B15: chr17:82078764:82078865:-|3pUTR|ENSG00000169710|msi1_unk|total|mutant (ssRNA)
RNA: GGGAGUUCUACAGUCCGACGAUCCCGUGGGGUCUGCGCUUGGUCUUUCUGUGCUUGGAUUUGCAUAUUUAUUGCAUUGCUGGCCGAGACCCCCAGGCCUGUCCACCCUGCCAAGACUCCUCAGGCAGCGUGUGGGUCCCGCACCAACAGAGGAUUGAGCAUCA
B16: chrX:131089436:131089558:+|3pUTR|ENSG00000147256|unk|total|mutant (ssRNA)
RNA: GGGAGUUCUACAGUCCGACGAUCGGGAAACCUCAAGUGCCGGUCUAAUCCGUGUUUCUGGGAUCCAAAGUCCGAGGAAAAUUCCGAUUUUAUUGCCUGGAUCUGCUUUAAAGACAAUUGGUGUUUACACCCUCUUGUCAGCAACAACAGAGGAUUGAGCAUCA
B17: chr10:69104613:69104714:+|3pUTR|ENSG00000122862|unk|FALSE|unique (ssRNA)
RNA: GGGAGUUCUACAGUCCGACGAUCACAUAUUUUACAGGGUGGAGUGUACUAUAUACUAUUACCUUUGAAUGUGUUUGCAGAGCUAGUGGAUGUGUUUGUCUACAAGUAUGAUUGCUGUUACAUAACACCCCAAAUUAACUCCCACAACAGAGGAUUGAGCAUCA
B18: ENSG00000156687:stop:overlap|stop_codon|ENSG00000156687|stop_codon|NA|stop_codon (ssRNA)
RNA: GGGAGUUCUACAGUCCGACGAUCACAUUUCAGAAUCCCAGCUUGAUGAAGCCGACUUCAACUACAGCAGGCAAAAUGGACUCUAGUCCACUUCCUCCCAUGAGACAGAGUGAUGGCCAGCUUGGGGACAUUUGCUUUAAAUGGCAACAGAGGAUUGAGCAUCA
B19: chr7:5606511:5606625:+|3pUTR|ENSG00000075618|msi1_unk|FALSE|overlapping (ssRNA)
RNA: GGGAGUUCUACAGUCCGACGAUCGGGUGUCUUGGUCUUUUAUUUUUUGUAAGUGUCAUUUGUAUAACUCUAAACGCCCAUGAUAGUAGCUUCAAACUGGAAAUAGCGAAAUAAAAUAACUCAGUCUGCAGCCCCAGGCCGGCCCAACAGAGGAUUGAGCAUCA
B20: chr1:230709994:230710823:-|CDS|ENSG00000135744|control|control|control (ssRNA)
RNA: GGGAGUUCUACAGUCCGACGAUCAAGGUCCUGUCUGCCCUGCAGGCUGUACAGGGCCUGCUAGUGGCCCAGGGCAGGGCUGAUAGCCAGGCCCAGCUGCUGCUGUCCACGGUGGUGGGCGUGUUCACAGCCCCAGGCCUGCACCAACAGAGGAUUGAGCAUCA
B21: chr19:12699869:12699961:-|3pUTR|ENSG00000105576|msi1_unk|FALSE|overlapping (ssRNA)
RNA: GGGAGUUCUACAGUCCGACGAUCGAGGGUGGGGGUGUAGUUACUUCCCAGUUGGCCAGAAAACUGGGCCUUGCAGACCCCCUUAGCAUUUUUUCCCUUUUUUUCCUUCCCUGCUUUCUACUUCUUUGGGGAGCCCCUUGUGUUCAACAGAGGAUUGAGCAUCA
B22: chr22:27980698:27980799:-|3pUTR|ENSG00000100154|unk|total|mutant (ssRNA)
RNA: GGGAGUUCUACAGUCCGACGAUCUAACCAUUAAUUUAUUUUAUAAAGAAAGGAAAUGCUGAAAGUCGUAUCCGUACUGAGUUCCGUUGGAGAAUUCCGAUAAGUAAGUAUCUUUCCGGUAAUUCUAAAAUUAAAAUCCUACCCCAACAGAGGAUUGAGCAUCA

Some of the results follow.

The assay deals with T1, UNK ZnF1-6 (called full-length) (human, UniProt Q9C0B0 30-357).
T1 sequence: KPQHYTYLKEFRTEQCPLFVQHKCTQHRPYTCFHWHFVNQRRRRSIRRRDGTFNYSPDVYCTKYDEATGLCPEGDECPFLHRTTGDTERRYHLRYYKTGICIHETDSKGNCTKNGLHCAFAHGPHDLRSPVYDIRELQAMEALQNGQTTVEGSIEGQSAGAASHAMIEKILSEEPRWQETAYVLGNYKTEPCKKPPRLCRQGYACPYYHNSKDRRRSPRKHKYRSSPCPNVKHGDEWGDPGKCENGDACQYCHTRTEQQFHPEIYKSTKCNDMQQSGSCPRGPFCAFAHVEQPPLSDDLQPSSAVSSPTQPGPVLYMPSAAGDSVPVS
Kind of assay: nsRBNS (natural sequence RNA bind-n-seq); RBNS binding buffer (assumed for nsRBNS): 25 mM Tris pH 7.5, 150 mM KCl, 3 mM MgCl2, 0.01% Triton X-100, 500 ug/ml BSA, 20 U/ml SUPERase-In, 4 C; UNK is unkempt and MSI1 is Musashi-1; names of the RNAs are library labels; protein concentration not given here; high values mean tight binding.
The molecule B1 showed a binding signal of 0.931 enrichment R.

Molecule B2 yielded a binding signal of 0.566 enrichment R.

The molecule B3 gave a binding signal of 1.53 enrichment R.

Turning to B4, the binding signal was determined as 3.61 enrichment R.

In turn, B5 came in with a binding signal of 0.392 enrichment R.

As to B6, the binding signal was 0.479 enrichment R.

Molecule B7 had a binding signal of 5.29 enrichment R.

B8: the binding signal stood at 0.335 enrichment R.

For B9, the binding signal is 0.583 enrichment R.

For B10, the binding signal came to 3.69 enrichment R.

With B11, the binding signal was found to be 1.7 enrichment R.

For the molecule B12, the binding signal was 0.589 enrichment R.

In the case of B13, the binding signal stood at 2.08 enrichment R.

The molecule B14 gave a binding signal of 1.85 enrichment R.

Regarding B15, the binding signal came to 0.812 enrichment R.

B16 returned a binding signal of 0.348 enrichment R.

Regarding B17, the binding signal came to 0.406 enrichment R.

The molecule B18 gave a binding signal of 0.56 enrichment R.

For B19, the binding signal stood at 1.39 enrichment R.

In the case of B20, the binding signal stood at 0.572 enrichment R.

In turn, B21 had a binding signal of 15.5 enrichment R.

Consider B22, for which the binding signal was 0.76 enrichment R.

The values are drawn from paper PMC12136788.
